# Assay results as given in PubChem BioAssay AID504332 (National Center for Advancing Translational Sciences (NCATS), 2011).
# The campaign covered roughly 350,000 compounds. About 31,000 (8.9%) were called active. The inconclusive results got no clear call from the source; some entries with a clear call stand among them for comparison. The call rests on the fitted dose curve; in most records, active means well fitted inhibition curve with a large enough effect; inconclusive means small, poorly fitted or top-dose-only effect; inactive means no such curve, though single readings can be large or run the other way. Where the call is inconclusive, the potency comes from a doubtful curve fit.
# Target: Histone-lysine N-methyltransferase EHMT2 (Homo sapiens) (UniProt Q96KQ7)
# Experiment: qHTS Assay for Inhibitors of Histone Lysine Methyltransferase G9a; further: nearly all actives have a fitted effect of over 75% in size
# Conditions: G9a H3K9 monomethylation, AlphaScreen, 2 h; activity, negative = inhibition: at 59 µM (top of the series) unless noted
# How it was run: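 G9a (20 nM) preincubated 15 min RT with compounds, then 500 nM biotinylated H3K9 peptide and 20 uM SAM added; 2 h RT reaction. Monomethyl-H3K9 product detected by AlphaScreen with anti-H3K9me1 antibody, streptavidin donor and anti-rabbit IgG acceptor beads.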
# On the % scale 0 is the no-effect control and ±100 the full control effect; potency means the concentration at half of the fitted maximal effect; tags describe the fitted curve by direction and shape.
# Sequence of UniProt Q96KQ7 (Q96KQ7 whole entry, looked up): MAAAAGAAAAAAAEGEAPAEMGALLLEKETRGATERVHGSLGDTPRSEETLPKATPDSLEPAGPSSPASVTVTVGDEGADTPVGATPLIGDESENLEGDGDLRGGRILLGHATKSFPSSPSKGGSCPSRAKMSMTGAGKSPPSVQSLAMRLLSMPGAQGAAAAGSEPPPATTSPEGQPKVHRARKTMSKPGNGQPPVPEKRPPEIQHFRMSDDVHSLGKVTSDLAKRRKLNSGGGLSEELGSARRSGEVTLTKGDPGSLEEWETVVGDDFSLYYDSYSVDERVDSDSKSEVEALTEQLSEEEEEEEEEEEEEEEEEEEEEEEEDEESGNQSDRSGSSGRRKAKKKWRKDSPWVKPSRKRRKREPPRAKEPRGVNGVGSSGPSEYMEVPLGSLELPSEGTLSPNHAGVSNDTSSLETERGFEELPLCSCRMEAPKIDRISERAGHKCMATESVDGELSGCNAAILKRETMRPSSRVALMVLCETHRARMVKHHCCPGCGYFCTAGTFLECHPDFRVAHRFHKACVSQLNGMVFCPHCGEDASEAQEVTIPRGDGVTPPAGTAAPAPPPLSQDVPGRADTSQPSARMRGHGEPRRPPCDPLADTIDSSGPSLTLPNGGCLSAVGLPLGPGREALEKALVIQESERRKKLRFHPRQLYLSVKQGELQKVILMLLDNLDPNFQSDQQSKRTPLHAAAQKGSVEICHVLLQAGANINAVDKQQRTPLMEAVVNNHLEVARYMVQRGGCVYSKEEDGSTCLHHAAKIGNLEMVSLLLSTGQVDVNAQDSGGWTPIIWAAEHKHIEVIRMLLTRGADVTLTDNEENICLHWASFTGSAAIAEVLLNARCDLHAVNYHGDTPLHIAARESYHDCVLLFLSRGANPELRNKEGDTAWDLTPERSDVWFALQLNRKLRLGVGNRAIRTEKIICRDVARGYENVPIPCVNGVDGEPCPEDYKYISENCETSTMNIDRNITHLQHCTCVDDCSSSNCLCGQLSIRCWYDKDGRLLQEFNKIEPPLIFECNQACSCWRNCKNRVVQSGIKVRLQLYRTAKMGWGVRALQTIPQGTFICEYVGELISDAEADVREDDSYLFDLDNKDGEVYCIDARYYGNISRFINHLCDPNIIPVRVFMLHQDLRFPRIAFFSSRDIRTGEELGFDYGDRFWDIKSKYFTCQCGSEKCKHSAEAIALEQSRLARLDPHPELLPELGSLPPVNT
Compound,Potency,"activity, negative = inhibition"
COc1ccc(/C=C/C(=O)NC(=S)N2CCSCC2)cc1,"inconclusive: 79.4 µM [inhibitor, single point]",
O=C(COC(=O)CCc1ccc(S(=O)(=O)N2CCOCC2)cc1)NCc1ccccc1,,inactive: 1.35% [at 102 µM]
COc1cccc(OC)c1C(=O)N1CCNCC1,,inactive: -10.9% [at 0.501 µM]
COCCn1nnnc1C(c1ccc(O)c(OC)c1)N1CCc2ccccc2C1 (centres undefined),"inconclusive: 0.794 µM [inhibitor, full curve, poor fit]",
Cc1cc(N2CCCC2)nc2ccc(NC(=S)NCCCOC(C)C)cc12,"inconclusive: 100 µM [inhibitor, single point]",
CCC(=O)NC(c1ccc(OC)cc1)c1cc(Cl)c2cccnc2c1O (centres undefined),,inactive: -0.901% [at 102 µM]
S=c1[nH]nc(-c2ccncc2)n1/N=C/c1ccccc1Cl,active: 1.41 µM,
O=C(c1ccco1)N1CCN(C(c2ccccc2)c2nnnn2Cc2cccs2)CC1 (centres undefined),"inconclusive: 35.5 µM [inhibitor, single point]",
COc1ccc(NC(=O)c2ccc(-c3ccc([N+](=O)[O-])cc3)o2)cc1,"inconclusive: 50.1 µM [inhibitor, partial curve]",
Oc1ccc(/C(Cc2ccc3ccccc3n2)=N\Nc2ccccc2)c(O)c1,active: 7.94 µM,
COC(=O)[C@H](Cc1ccccc1)NC(=O)NCCC1=CCCCC1,"inconclusive: 89.1 µM [inhibitor, single point]",
COc1ccc(C)cc1NC(C)C(=O)NC(=O)NC1CCCCC1 (centres undefined),"inconclusive: 2.82 µM [inhibitor, partial curve, poor fit]",
COc1cc(/C=C/C(=O)OCC(=O)c2ccc3c(c2)NC(=O)CO3)ccc1OC(F)F,"inconclusive: 0.316 µM [inhibitor, partial curve, poor fit]",
CC1CCN(CCc2nc3cc(NC(=O)Nc4ccccc4)ccc3n2C)CC1,"inconclusive: 3.55 µM [inhibitor, partial curve, poor fit]",
O=C(N=Nc1c(O)[nH]c2ccccc12)c1cc(NS(=O)(=O)c2cccs2)cc(NS(=O)(=O)c2cccs2)c1,,inactive: -2.16% [at 102 µM]
Cc1cc(C)c2nc(C)cc(N/N=C/c3ccc(O)cc3)c2c1,"inconclusive: 50.1 µM [inhibitor, partial curve, poor fit]",
COc1cc(Br)cc(CN2CCN(C=O)CC2)c1O,"inconclusive: 0.355 µM [inhibitor, partial curve, poor fit]",
CCc1cc2ccc(C)cc2nc1SCC(=O)N1CCN(C(=O)c2ccco2)CC1,,inconclusive: -74.6% [inhibitor]
COC(=O)C(C)Sc1n[nH]c(=S)s1 (centres undefined),active: 6.31 µM,
COc1ccc(C2(C(=O)O)CCCC2)cc1,,inactive: -23% [at 12.7 µM]
COc1ccccc1Nc1ncnc2c1c(C)c(C)n2CCO,"inconclusive: 89.1 µM [inhibitor, single point]",
CC(=O)C1=C(O)C(=O)N(Cc2cccnc2)C1c1ccccc1 (centres undefined),"inconclusive: 39.8 µM [inhibitor, single point]",
CCOc1ccc(NC(=S)N2CCN(S(=O)(=O)c3ccccc3)CC2)cc1,"inconclusive: 79.4 µM [inhibitor, single point]",

Compound,Potency,"activity, negative = inhibition"
CCOC(=O)N1CCC(N2CC34C=CC(O3)C(C(=O)O)C4C2=O)CC1 (centres undefined),"inconclusive: 25.1 µM [inhibitor, partial curve, poor fit]",
CN(C)c1ccc(CNS(=O)(=O)c2ccc(-c3cc(C(F)(F)F)on3)s2)cc1,,inactive: -19.8%
COc1ccc(-n2c(SCC(=O)NCc3ccco3)nc3sc4c(c3c2=O)CCN(C)C4)cc1,active: 79.4 µM,
CCN1CCN(c2ccc([N+](=O)[O-])c(Sc3nc4ccccc4[nH]3)c2)CC1,active: 31.6 µM,
O=c1c2cc(Br)ccc2nc(-c2ccc(Cl)cc2)n1O,"inconclusive: 1 µM [inhibitor, single point]",
CSc1ccccc1C(=O)NCCOc1cccc(C)c1,active: 44.7 µM,
Clc1ccc(-c2nn3c(C4COc5ccccc5O4)nnc3s2)cc1 (centres undefined),active: 7.08 µM,
C=CCSc1nnc2c(n1)OC(c1cccnc1)Nc1ccccc1-2 (centres undefined),"inconclusive: 39.8 µM [inhibitor, single point]",
COc1ccc(Cn2nnnc2CN(Cc2cc3cc(C)ccc3[nH]c2=O)C2CCCC2)cc1,"inconclusive: 3.16 µM [inhibitor, partial curve, poor fit]",
C=CCOC(=O)c1cc(-c2ccc(/C=C3\C(=O)NC(=O)C(C#N)=C3C)o2)ccc1Cl,active: 8.91 µM,
COc1ccccc1-c1ccc(/C=C2/C=C(C)OC2=O)o1,active: 15.8 µM,
Cn1cc(CN(C(=O)Nc2ccccc2)C2CCCCC2)c2ccccc21,"inconclusive: 8.91 µM [inhibitor, partial curve, poor fit]",
CCS(=O)(=O)Nc1ccc(-c2cn3ccsc3n2)cc1,,inactive: 20.3%
O=C1c2oc3ccc(Cl)cc3c(=O)c2C(c2ccco2)N1CCN1CCOCC1 (centres undefined),active: 11.2 µM,
COc1cc(/C=N/N=C2/C(=O)Nc3ccccc32)ccc1O,"inconclusive: 39.8 µM [inhibitor, single point]",
CNCCOc1ccccc1OC(C)C,active: 17.8 µM,
c1ccc2[nH]c(SCC3CCCCO3)nc2c1 (centres undefined),"inconclusive: 89.1 µM [inhibitor, partial curve, poor fit]",
Cc1ccc(-n2nnc(-c3cc4ccccc4nc3Cl)n2)cc1,,inconclusive: -97% [inhibitor]
CCOc1ccc2c(c1)C(c1ccc(C)cc1)=NNC(c1ccc(OC)cc1)=N2,"inconclusive: 44.7 µM [inhibitor, partial curve]",
O=C(c1ccc2c3c(cccc13)CC2)C1CCCN(Cc2ccncc2)C1 (centres undefined),"inconclusive: 44.7 µM [inhibitor, partial curve]",
Cc1ccc(Cl)c(NC(=O)COC(=O)CNS(=O)(=O)/C=C/c2ccccc2)c1Cl,"inconclusive: 89.1 µM [inhibitor, single point]",
COc1cc(/C=C2\SC(=Nc3ccccc3)N(Cc3ccco3)C2=O)ccc1OC(C)C(=O)O (centres undefined),"inconclusive: 10 µM [inhibitor, partial curve]",
CCOC(=O)C1(Cc2cccc(OC)c2)CCCN(C(=O)c2cc(C)[nH]n2)C1 (centres undefined),,inactive: -36.3% [at 102 µM]

Compound,Potency,"activity, negative = inhibition"
O=C(COC(=O)c1ccccc1OC(F)F)Nc1ccc2[nH]c(=O)[nH]c2c1,active: 39.8 µM,
CCc1ccccc1NC(=O)CNC(=O)CCc1nc2sc3c(c2c(=O)[nH]1)CCCC3,"inconclusive: 44.7 µM [inhibitor, partial curve, poor fit]",
CC(NC(N)=O)C(=O)Nc1ccc(Cl)c(S(=O)(=O)Nc2ccc(Cl)cc2)c1 (centres undefined),,inactive: -8.72% [at 102 µM]
CCOC(=O)c1cnc(-n2nc(C)cc2C)nc1Nc1ccc(C)cc1,,inconclusive: -80.8% [inhibitor] [at 12.7 µM]
Cc1ccccc1S(=O)(=O)NC1OC(=O)C(Oc2ccccc2)=C1Br (centres undefined),active: 50.1 µM,
O=C(COC(=O)Cc1ccccc1F)NNC(=O)c1ccc(Cl)cc1,"inconclusive: 39.8 µM [inhibitor, partial curve]",
CN1CCN(C(=S)NC(=O)c2ccc(-c3ccccc3)cc2)CC1,"inconclusive: 50.1 µM [inhibitor, partial curve, poor fit]",
Cc1[nH]c(C)c(S(=O)(=O)NCCc2ccc(S(N)(=O)=O)cc2)c1C(=O)N1CCCC1,"inconclusive: 4.47 µM [inhibitor, partial curve, poor fit]",
N/C(=N\OC(=O)Cc1ccccc1)c1ccncc1,"inconclusive: 89.1 µM [inhibitor, single point]",
COc1ccccc1N=c1oc2cc(O)ccc2cc1C(=O)NCC1CCCO1 (centres undefined),,inactive: 23.2%
NNC(=O)C=C1CCN(c2ncc(C(F)(F)F)cc2Cl)CC1,,inconclusive: -103% [inhibitor] [at 12.7 µM]
CCOC(=O)C1CCCN(Cc2cc(OC)c(O)c(OC)c2)C1 (centres undefined),"inconclusive: 6.31 µM [inhibitor, single point]",
O=C(CCN1CCN(CCO)CC1)Nc1ccc(C2CCCC2)cc1,"inconclusive: 28.2 µM [inhibitor, partial curve]",
CC(NCc1cc(Br)ccc1OCC(N)=O)C12CC3CC(CC(C3)C1)C2 (centres undefined),,inactive: 24.7% [at 0.501 µM]
CCOC(=O)c1c(NC(=S)N2CCCCC2)sc2c1CCN(C(=O)OCC)C2,"inconclusive: 35.5 µM [inhibitor, single point]",
Cc1cccc2nc(-c3ccco3)c(Nc3ccc4c(c3)OCCO4)n12,"inconclusive: 28.2 µM [inhibitor, single point]",
O=C(CSc1nc2c(c(=O)n1-c1ccc(Br)cc1)SCC2)NCC1CCCO1 (centres undefined),"inconclusive: 39.8 µM [inhibitor, single point]",
CCC(c1nnnn1Cc1ccco1)N1CCN(c2cc(Cl)ccc2C)CC1 (centres undefined),,inactive: 9.72%
Nc1nnc(CSCc2ccc(Cl)cc2Cl)s1,"inconclusive: 35.5 µM [inhibitor, single point]",
COc1ccc(-c2nn(Cc3ccccc3)cc2C(=O)N2CCN(c3ncccn3)CC2)cc1OC,,inconclusive: -71.4% [inhibitor]
O=C(c1ccco1)N1CCN(c2c([N+](=O)[O-])nn(-c3ccc(Cl)cc3)[n+]2[O-])CC1,"inconclusive: 28.2 µM [inhibitor, single point]",
Cc1ccc(CN2CCN(CC(=O)N3CCc4ccccc4C3)C2=O)cc1,"inconclusive: 20 µM [inhibitor, partial curve, poor fit]",
CN(C)CCCN1c2ccccc2C(C)(C)c2ccccc21,"inconclusive: 22.4 µM [inhibitor, partial curve]",
